# Measured values as given in the supplement of paper PMC11417369.
# The other results are listed elsewhere or left out.
# Test system: PF3D7_0420300 AP2 domain 1 (GST-tagged)
# Experiment: gcPBM binding intensity (ln(normalized median fluorescence intensity)); higher = stronger DNA binding
# In short: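 Binding intensity values are the highest Masliner-normalised natural-log median intensity among replicate spots of either probe orientation. The binding step lasted 1 h in 1× PBS with 1% milk, 0.2 mg/ml BSA, 0.5% salmon testes DNA and 0.03% Triton X-100, using GST-tagged P. falciparum DNA-binding domains expressed in E. coli on an Agilent 4 × 180k array of primer-extended double-stranded 36-bp intergenic genomic probes plus negative controls. Alexa488 anti-GST antibody and a 488 nm scan detected bound protein.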
row,Sequence,gcPBM binding intensity (ln)
1,ATGTAGTCTCAAGACTGTACAAACAAGTAAATAAAA [XGTACX_site4120],9.15
2,TGTATAAGTGCCGTTATACACACGTTATATAAATAT [CACACA_site438],9.26
3,TATCTTATTTTAAAAGTGCATGGAAAGGGGTTTTTG,9.05
4,ATAAATTTATATACTTGTACATATATATATTACATA [XGTACX_site6697],9.24
5,TATATATACATATACACACACACACCCATATATATA [CACACA_site2246],10.2
6,TTTGAAATAAAAAGGTGTACACTCGATTAATAAATA [XGTACX_site6943],9.12
7,TTTTAGCACTTATTATAAGATATCAAAAAGATGGGT [XGTACX_negctrl_site325],9.05
8,ACTATCATTTTTTTAACACACAAAAAAAATAAAATA [CACACA_site3519],9.25
9,AAAATTTCAATAAATACACACATATATATATATATT [CACACA_site1685],9.36
10,AAATAATATATGAATGCACACAGTAAAAATTAAAGA [CACACA_site2252],9.7
11,ATATTTTTATGATGTATCCAAGAAATGGAACTATAT [CACACA_negctrl_site1268],9.02
12,AAGATTAATATTTTATGTACATATGTAATATATATG [XGTACX_site4367],9.17
13,AAGAATACACCACGCACACACACTTGAGAAAAAATA [CACACA_site3828],9.9
14,TTCTTTGTGGTATAGATACACACTATATTAATATGA [CACACA_site2150],9.4
15,ATATATACCTAAGACACACACATATAGATTTATATA [CACACA_site6498],9.84
16,ATTTTAGATATCCTGCGTACACAAATTGCTTTATTT [XGTACX_site7149],9.43
17,TATATAGTAATATATACACACACTTGTCTTGTAAAA [CACACA_site990],9.56
18,TTTTTATTTAATATTTTAAAAAAAAATCATTTTTAA [XGTACX_negctrl_site207],8.41
19,TTATAAAAATAATATCGTACAAATGATAAAGATTAA [XGTACX_site4893],9.13

row,Sequence,gcPBM binding intensity (ln)
1,TGAATTCGTCAAAAGCGTACATATAATATCTTCTTG [XGTACX_site8842],9.19
2,ACATATATATATATATATAATATTTTATATTTATTA [CACACA_negctrl_site713],8.96
3,AAAATAATGTTTATATGTACATATATATATATATAT [XGTACX_site8815],9.34
4,CCATTTACCCTTGCCATGCACACTTTTTTATAGAAA [CACACA_site3505],9.55
5,ATATTTTTTTATAAATGTACAAAAATAATATTGCAT [XGTACX_site7399],9.02
6,TTTCCAAATTGTTGACGGACACTCACGAATAGTTAT [XGTACX_site5720],9.09
7,ACATGAAGATATTTTTGTCCGTACAAATTCATATGA [XGTACX_site1837],9.1
8,CATATGTATATGACTACACACAAGGGTGTACATATA [CACACA_site1164],9.46
9,AGTATATCAAAATACATACACACATTTGTATATACA [CACACA_site2697],9.5
10,TACGTTATGTTGAATAGTACAATTTGGTGAACAGGT [XGTACX_site1729],9.35
11,GTCCTCATCCACTATGCACACAAAAAAGAAATACAC [CACACA_site9131],9.53
12,TTTTTTTTTTTTTTTTGTACACAAATTTATTGTCTA [XGTACX_site2680],8.68
13,CGAAGGTTTGGCCATGCATGTTATAAGAATATATGT [TGCATGCA_site441],9.25
14,TCATTTTATTATTCTACACACTTATCTATAATTACA [CACACA_site6168],9.51
15,TTACATGTACAAAAGTTGCACTTCATACACTTTTAT,9.26
16,ATTCTATATATGTGCACACAAAAGATATATATATAT [CACACA_site2124],9.53
17,TCATTTCAATACACAAGTACGTATATGGTTATATTG [XGTACX_site6021],9.33
18,AATATAAAATAATGCACACATAAACAAAAAATCAAA [CACACA_site1371],9.83
19,TTTAATAATATAATGTGTACTTAAAAATTTATATAT [XGTACX_site5821],9.07

row,Sequence,gcPBM binding intensity (ln)
1,TCATAAATTAATAATACATGCATAATATTAAAATGT [TGCATGCA_site5],9.26
2,AAAAATATATAAGAGAGTACATAAAATAAATTAATT [XGTACX_site1534],9.31
3,ATATATATAATATGTAGTACTTTCCTCTCAAATCAT [XGTACX_site7766],9.21
4,ATCAAAAATATAAAAAATATAAACAATTTATTATCA [CACACA_negctrl_site768],9.13
5,TTTACATCCAAAAACTGTACACTTATTTTATAATTC [XGTACX_site5332],9.2
6,GAATCATATTTAAACACACATACATATATATATATA [CACACA_site3352],9.39
7,AATAAGTAACAAAATACACACATATATATAATTATA [CACACA_site1837],9.85
8,TTCATTATTATTAACATACACACGTGTTATATACAC [CACACA_site4112],9.47
9,AAAAAATACAAGAAATGTACTCAAGCATATATTAAT [XGTACX_site3325],9.53
10,TTTTTACTATAATTAAAATTAACAAAAGAAAATGAT [GTGCAC_negctrl_site52],9.11
11,TTCATTTTTTAAGCATCACACACGAAAGAACAAAGT [CACACA_site1122],9.62
12,TAACCATACATACATACACACACACCCACATATATA [CACACA_site8951],10.1
13,ATAAAAAACTCAGAGCGTACATAATTTTTTCTATTT [XGTACX_site2803],9.18
14,TATATATTCAAATGTGCATGTAAAAAAAAAAAAAAG [TGCATGCA_site126],9.32
15,CAGGAGAGTAAAAGAGTGCGAATTATTATTTTGGAG,9.11
16,AGACATTAATGAAGGTGTACATATATTTGACAGAAT [XGTACX_site655],9.45
17,TCCCTAGTATACCTTAGTACATATATTATTTTGCAC [XGTACX_site2174],9.35
18,GGCATATATATATGCACACATACATAAATACATGTG [CACACA_site5999],9.42
19,TATATAATATAATTGACATGCAACCATTTTCGTGAA [TGCATGCA_site458],9.2
